# Measured values as given in US8592367B2, “Nodule specific medicago peptides having antimicrobial activity and pharmaceutical compositions containing the same” (priority 2009, dated 2013).
# Test system: Sinorhizobium meliloti AK631
# Experiment: PI staining of Sinorhizobium meliloti
# Details: 1, 2, 5, 10, 20 and 50 μg/ml, log phase bacteria, FIGS. 3A to 3E
# Method: Propidum Iodide (PI) is able to intercalate into the DNA structure and emits fluorescence only in DNA bound form. PI is able to enter only into cells that lost the membrane integrity therefore it is commonly used for identifying dead cells by detecting fluorescence emission intensity. Intact membranes are impervious for PI, therefore PI is excluded from alive cells, and no fluorescence is observed.
# PI staining was measured in a BMG Labtech Fluostar Optima fluorimeter (excitation: 520 nm, emission: 610 nm). Reactions were initiated by addition of NCR peptides to the bacteria. Kinetic measurements were performed, in most cases a plateau of fluorescence intensity was reached within minutes.
# Peptides (NCRs) were added at 1, 2, 5, 10, 20 and 50 μg/ml concentrations to log phase bacteria.
# Polymyxin B was added at 50 μg/ml.
Substance,relative PI fluorescence at various concentrations,relative PI fluorescence at various concentrations (listed as NCR35)
NCR055: cationic NCR peptide (VNDCIRIHCKDDFDCIENRLQVGCRLQREKPRCVNLVCRCLRR; Peptide derived from Medicago truncatula),significant PI fluorescence at 10 or 20 μg/ml,–
NCR057: cationic NCR peptide (RPVSCKDHYDCRRKVKIVGCIFPQEKPMCINSMCTCIREIVP; Peptide derived from Medicago truncatula),more active at higher concentrations (20 and 50 μg/ml),–
NCR247: cationic NCR peptide (RNGCIVDPRCPYQQCRRPLYCRRR; Peptide derived from Medicago truncatula),significant PI fluorescence at 10 or 20 μg/ml,–
NCR035: cationic NCR peptide (SFLGTFISSCKRDKDCPKLYGANFRCRKGTCVPPI; Peptide derived from Medicago truncatula),high activity from 2 μg/ml,significant PI fluorescence at 10 or 20 μg/ml
